Data: PMC3742540
Where a chain is given by its changes, count along the chain named. Names may count otherwise. Results are given in words; binding and its absence hold for the method and conditions named. In cells and extracts the contact can be indirect. Some results given as binding are weak or reduced against the parent protein; the word gives no strength. Sequences can lack the tags named with a protein. Each block holds one binder with its values, some of them ahead of it.

What was measured:
[1] = target: T1, GST-RhoGDIα (wild-type mouse RhoGDIα, GST fusion) (mouse) (UniProt Q99PT1); assay: pull-down; in vitro GST pull-down with highly purified GST-RhoGDIα; FRMD7 full length and truncates from eukaryotic expression; only the target purified
T1 sequence: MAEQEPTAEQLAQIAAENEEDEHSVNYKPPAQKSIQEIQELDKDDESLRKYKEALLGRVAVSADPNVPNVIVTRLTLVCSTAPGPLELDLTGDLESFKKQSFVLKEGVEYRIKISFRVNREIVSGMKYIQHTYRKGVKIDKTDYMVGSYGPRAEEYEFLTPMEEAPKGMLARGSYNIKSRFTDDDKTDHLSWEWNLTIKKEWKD

[2] = target: T2, Flag-tagged mouse full length FRMD7 (mouse) (UniProt A2AD83); assay: co-IP; reciprocal co-IP from Neuro-2a cells co-transfected with Flag-FRMD7 and Myc-RhoGDIα, 48 h; lysis buffer 50mM Tris pH 7.4, 150mM NaCl, 1% NP-40, 0.25% sodium deoxycholate; anti-Flag or anti-Myc antibody overnight at 4° C, protein A/G Sepharose; normal mouse IgG as negative control
T2 sequence: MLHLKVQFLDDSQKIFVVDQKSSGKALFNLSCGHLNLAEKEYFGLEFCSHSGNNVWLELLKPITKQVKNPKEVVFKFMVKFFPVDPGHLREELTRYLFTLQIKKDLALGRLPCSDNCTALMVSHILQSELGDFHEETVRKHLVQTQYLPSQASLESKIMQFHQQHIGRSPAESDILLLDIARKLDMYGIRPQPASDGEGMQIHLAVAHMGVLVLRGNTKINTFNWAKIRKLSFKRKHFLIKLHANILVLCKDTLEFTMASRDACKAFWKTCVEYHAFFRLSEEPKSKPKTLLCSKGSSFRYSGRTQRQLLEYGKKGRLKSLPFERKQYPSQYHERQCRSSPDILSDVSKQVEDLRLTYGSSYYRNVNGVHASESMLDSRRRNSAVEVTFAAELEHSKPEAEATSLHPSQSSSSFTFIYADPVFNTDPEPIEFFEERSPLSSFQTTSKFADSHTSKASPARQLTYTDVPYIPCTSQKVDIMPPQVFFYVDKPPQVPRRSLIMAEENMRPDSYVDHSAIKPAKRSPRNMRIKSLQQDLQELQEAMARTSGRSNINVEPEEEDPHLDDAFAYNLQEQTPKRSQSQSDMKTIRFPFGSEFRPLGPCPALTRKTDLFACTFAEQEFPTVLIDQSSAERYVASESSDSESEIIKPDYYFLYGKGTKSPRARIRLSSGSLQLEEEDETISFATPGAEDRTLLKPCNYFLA

[3] = target: T3, Myc-tagged RhoGDIα expressed in HEK293T cells (not stated (human or mouse cDNA cloned)) (UniProt P52565); assay: co-IP; HEK293T cells expressing Myc-RhoGDIα alone or with Flag-tagged wild-type or mutant human FRMD7, 48 h; Myc-RhoGDIα precipitated with anti-Myc antibody bound to protein A/G-Sepharose; blots for Rac1, Cdc42, RhoA and Flag
T3 sequence: T1 sequence with I71V, R74G, T81S, M162V, N176S, E201D

[4] = target: T4, Myc-tagged mouse RhoGDIα (mouse) (UniProt Q99PT1); assay: co-IP; reciprocal co-IP from Neuro-2a cells co-transfected with Flag-FRMD7 and Myc-RhoGDIα, 48 h; lysis buffer 50mM Tris pH 7.4, 150mM NaCl, 1% NP-40, 0.25% sodium deoxycholate; anti-Flag or anti-Myc antibody overnight at 4° C, protein A/G Sepharose; normal mouse IgG as negative control
T4 sequence: T1 sequence

[5] = target: T4, Myc-tagged mouse RhoGDIα (mouse); assay: co-IP; Neuro-2a cells expressing Myc-RhoGDIα with or without Flag-full-length FRMD7; Myc-RhoGDIα precipitated with 3 µg anti-Myc antibody bound to protein A/G-Sepharose; blots for Rac1, Cdc42, RhoA and Flag

- binding [1]: no binding
B1: Cr-fragment FRMD7 (aa 280-703; FRMD7 lacking the FERM domain) (domain or fragment, UniProt A2AD83 280-703)
chain: LSEEPKSKPKTLLCSKGSSFRYSGRTQRQLLEYGKKGRLKSLPFERKQYPSQYHERQCRSSPDILSDVSKQVEDLRLTYGSSYYRNVNGVHASESMLDSRRRNSAVEVTFAAELEHSKPEAEATSLHPSQSSSSFTFIYADPVFNTDPEPIEFFEERSPLSSFQTTSKFADSHTSKASPARQLTYTDVPYIPCTSQKVDIMPPQVFFYVDKPPQVPRRSLIMAEENMRPDSYVDHSAIKPAKRSPRNMRIKSLQQDLQELQEAMARTSGRSNINVEPEEEDPHLDDAFAYNLQEQTPKRSQSQSDMKTIRFPFGSEFRPLGPCPALTRKTDLFACTFAEQEFPTVLIDQSSAERYVASESSDSESEIIKPDYYFLYGKGTKSPRARIRLSSGSLQLEEEDETISFATPGAEDRTLLKPCNYFLA

- binding [2]: binds
B2: Myc-tagged mouse RhoGDIα (protein, UniProt Q99PT1 1-204)
chain: T1 sequence

- binding [3]: binds weakly
B3: Flag-tagged human FRMD7 truncated mutant c.1003C>T (p.R335X) (domain or fragment, UniProt Q6ZUT3-1 1-334)
chain: MLHLKVQFLDDSQKIFVVDQKSSGKALFNLSCSHLNLAEKEYFGLEFCSHSGNNVWLELLKPITKQVKNPKEIVFKFMVKFFPVDPGHLREELTRYLFTLQIKKDLALGRLPCSDNCTALMVSHILQSELGDFHEETDRKHLAQTRYLPNQDCLEGKIMHFHQKHIGRSPAESDILLLDIARKLDMYGIRPHPASDGEGMQIHLAVAHMGVLVLRGNTKINTFNWAKIRKLSFKRKHFLIKLHANILVLCKDTLEFTMASRDACKAFWKTCVEYHAFFRLSEEPKSKPKTLLCSKGSSFRYSGRTQRQLLEYGRKGRLKSLPFERKHYPSQYHE

- binding [3]: binds
B4: Flag-tagged human FRMD7 mutant c.781C>G (p.R261G) (protein, UniProt Q6ZUT3-1 1-714)
chain: MLHLKVQFLDDSQKIFVVDQKSSGKALFNLSCSHLNLAEKEYFGLEFCSHSGNNVWLELLKPITKQVKNPKEIVFKFMVKFFPVDPGHLREELTRYLFTLQIKKDLALGRLPCSDNCTALMVSHILQSELGDFHEETDRKHLAQTRYLPNQDCLEGKIMHFHQKHIGRSPAESDILLLDIARKLDMYGIRPHPASDGEGMQIHLAVAHMGVLVLRGNTKINTFNWAKIRKLSFKRKHFLIKLHANILVLCKDTLEFTMASGDACKAFWKTCVEYHAFFRLSEEPKSKPKTLLCSKGSSFRYSGRTQRQLLEYGRKGRLKSLPFERKHYPSQYHERQCRSSPDLLSDVSKQVEDLRLAYGGGYYQNVNGVHASEPVLESRRRNSALEVTFATELEHSKPEADPTLLHQSQSSSSFPFIYMDPVFNTEPNPNPDPRDIFSERSSLSSFQTSCKFSGNHMSIYSGLTSKVRPAKQLTYTDVPYIPCTGQQVGIMPPQVFFYVDKPPQVPRWSPIRAEERTSPHSYVEPTAMKPAERSPRNIRMKSFQQDLQVLQEAIARTSGRSNINVGLEEEDPNLEDAFVCNIQEQTPKRSQSQSDMKTIRFPFGSEFRPLGPCPALSHKADLFTDMFAEQELPAVLMDQSTAERYVASESSDSESEILKPDYYALYGKEIRSPMARIRLSSGSLQLDEEDEDAYFNTPTAEDRTSLKPCNYFLA

- binding [3]: binds
B5: Flag-tagged wild-type human FRMD7 (protein, UniProt Q6ZUT3-1 1-714)
chain: B4 chain with G261R

- binding [3]: binds
B6: Flag-tagged human FRMD7 mutant c.886G>C (p.G296R) (protein, UniProt Q6ZUT3-1 1-714)
chain: B4 chain with G261R, G296R

- binding [1]: no binding
B7: Nr-ferm FRMD7 (aa 1-279; the N-terminal FERM domain of mouse FRMD7) (domain or fragment, UniProt A2AD83 1-279)
chain: MLHLKVQFLDDSQKIFVVDQKSSGKALFNLSCGHLNLAEKEYFGLEFCSHSGNNVWLELLKPITKQVKNPKEVVFKFMVKFFPVDPGHLREELTRYLFTLQIKKDLALGRLPCSDNCTALMVSHILQSELGDFHEETVRKHLVQTQYLPSQASLESKIMQFHQQHIGRSPAESDILLLDIARKLDMYGIRPQPASDGEGMQIHLAVAHMGVLVLRGNTKINTFNWAKIRKLSFKRKHFLIKLHANILVLCKDTLEFTMASRDACKAFWKTCVEYHAFFR

- binding [4]: binds
- binding [1]: binds
- binding [5]: binds
B8: Flag-tagged mouse full length FRMD7 (protein, UniProt A2AD83 1-703)
chain: T2 sequence
